Laboratory results published in paper PMC4455778.
These are yes or no findings as the source states them, for the method shown. For some assays here: Binding seen in cells or lysates may run through a third protein. Some binding calls cover weakened binding; strength is not graded here. For some assays here: Sequences can lack the tags named with a protein.

T1: Lig4-GFP (S. pombe) (UniProt O74833)
T1 sequence: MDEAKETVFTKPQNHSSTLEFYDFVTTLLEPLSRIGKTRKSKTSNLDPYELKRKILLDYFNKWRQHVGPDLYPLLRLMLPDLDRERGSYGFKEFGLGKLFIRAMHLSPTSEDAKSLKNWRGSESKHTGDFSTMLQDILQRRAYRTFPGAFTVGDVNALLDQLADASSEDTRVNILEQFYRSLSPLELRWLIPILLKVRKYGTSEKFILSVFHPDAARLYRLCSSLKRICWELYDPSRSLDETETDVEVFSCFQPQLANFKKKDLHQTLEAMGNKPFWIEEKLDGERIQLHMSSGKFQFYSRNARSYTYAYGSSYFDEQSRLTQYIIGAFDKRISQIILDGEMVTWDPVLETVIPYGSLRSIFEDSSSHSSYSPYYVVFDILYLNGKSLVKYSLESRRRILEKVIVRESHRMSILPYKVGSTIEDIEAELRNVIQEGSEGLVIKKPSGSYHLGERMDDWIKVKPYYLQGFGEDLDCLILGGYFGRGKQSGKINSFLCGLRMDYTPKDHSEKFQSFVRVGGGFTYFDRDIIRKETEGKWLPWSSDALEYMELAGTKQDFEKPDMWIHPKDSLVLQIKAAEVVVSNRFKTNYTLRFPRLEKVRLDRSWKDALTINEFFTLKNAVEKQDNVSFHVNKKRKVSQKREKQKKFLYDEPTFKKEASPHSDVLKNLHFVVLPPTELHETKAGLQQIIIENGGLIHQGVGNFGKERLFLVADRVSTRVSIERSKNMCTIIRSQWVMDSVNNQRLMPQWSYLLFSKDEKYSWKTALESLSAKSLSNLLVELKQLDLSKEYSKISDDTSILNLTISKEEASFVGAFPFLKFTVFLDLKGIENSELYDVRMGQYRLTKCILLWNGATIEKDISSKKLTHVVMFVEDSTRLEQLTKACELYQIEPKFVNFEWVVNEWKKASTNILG

T2: C-terminal fragment of Lig4 (amino acids 660-913) (S. pombe) (UniProt O74833)
T2 sequence: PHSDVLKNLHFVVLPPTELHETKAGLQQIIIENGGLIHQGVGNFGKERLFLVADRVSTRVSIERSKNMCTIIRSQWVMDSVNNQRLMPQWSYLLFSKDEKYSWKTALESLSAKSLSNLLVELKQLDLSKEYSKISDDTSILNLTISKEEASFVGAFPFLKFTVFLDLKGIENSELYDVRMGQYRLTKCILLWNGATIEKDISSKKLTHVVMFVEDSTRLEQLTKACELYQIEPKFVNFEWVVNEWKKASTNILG

T3: Lig4 (two-hybrid bait) (S. pombe) (UniProt O74833)
T3 sequence: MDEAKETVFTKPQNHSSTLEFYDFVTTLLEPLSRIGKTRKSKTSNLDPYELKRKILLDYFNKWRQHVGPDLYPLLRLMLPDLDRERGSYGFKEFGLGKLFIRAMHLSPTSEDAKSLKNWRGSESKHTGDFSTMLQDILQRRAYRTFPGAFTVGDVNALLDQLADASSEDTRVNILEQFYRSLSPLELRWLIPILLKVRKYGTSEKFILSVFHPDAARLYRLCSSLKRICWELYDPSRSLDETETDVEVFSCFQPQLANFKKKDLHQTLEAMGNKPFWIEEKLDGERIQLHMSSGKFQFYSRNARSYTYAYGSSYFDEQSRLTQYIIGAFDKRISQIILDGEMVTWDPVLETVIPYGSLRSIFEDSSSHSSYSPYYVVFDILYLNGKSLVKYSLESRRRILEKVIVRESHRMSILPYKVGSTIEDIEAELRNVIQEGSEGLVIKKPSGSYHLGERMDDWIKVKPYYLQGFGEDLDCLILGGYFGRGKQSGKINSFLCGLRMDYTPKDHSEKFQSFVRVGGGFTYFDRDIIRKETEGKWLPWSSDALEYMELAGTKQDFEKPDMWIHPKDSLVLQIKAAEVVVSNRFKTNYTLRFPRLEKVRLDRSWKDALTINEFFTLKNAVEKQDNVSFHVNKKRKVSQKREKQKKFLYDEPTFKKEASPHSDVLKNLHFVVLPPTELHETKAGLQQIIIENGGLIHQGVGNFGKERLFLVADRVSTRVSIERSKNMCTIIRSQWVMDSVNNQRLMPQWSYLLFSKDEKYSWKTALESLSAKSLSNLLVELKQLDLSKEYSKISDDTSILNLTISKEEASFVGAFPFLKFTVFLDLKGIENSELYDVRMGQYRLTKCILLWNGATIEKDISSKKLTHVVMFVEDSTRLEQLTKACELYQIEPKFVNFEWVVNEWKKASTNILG

T4: Lig4 fragment (amino acids 660-830) (S. pombe) (UniProt O74833)
T4 sequence: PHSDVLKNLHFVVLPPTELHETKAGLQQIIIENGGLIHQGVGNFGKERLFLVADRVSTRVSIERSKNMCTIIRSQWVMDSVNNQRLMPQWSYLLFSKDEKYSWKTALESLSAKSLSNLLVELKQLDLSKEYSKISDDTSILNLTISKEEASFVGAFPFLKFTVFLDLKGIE

T5: Lig4 fragment (amino acids 741-913) (S. pombe) (UniProt O74833)
T5 sequence: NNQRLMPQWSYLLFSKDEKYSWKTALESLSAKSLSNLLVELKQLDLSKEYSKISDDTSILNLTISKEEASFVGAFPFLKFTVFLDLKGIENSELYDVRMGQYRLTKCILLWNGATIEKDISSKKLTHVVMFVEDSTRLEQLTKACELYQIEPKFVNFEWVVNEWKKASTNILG


Key:
Lig4-GFP (S. pombe) = biological target: T1, Lig4-GFP (S. pombe); assay: co-IP; GFP-trap agarose beads precipitate the GFP-tagged protein from lysates of S. pombe cells co-expressing the two proteins from P41nmt1; lysis buffer 50 mM HEPES pH 7.5, 1 mM EDTA, 150 mM NaCl, 10% glycerol, 1 mM DTT, 0.05% NP-40; five washes
[1] = biological target: T2, C-terminal fragment of Lig4 (amino acids 660-913) (S. pombe); assay: two-hybrid; Matchmaker system (Clontech), Lig4 and fragments as bait, Xrc4 as prey, AH109 strain; HIS3 and ADE2 reporters assessed on SD/-Ade/-His/-Leu/-Trp
[2] = biological target: T3, Lig4 (two-hybrid bait) (S. pombe); assay: as above
[3] = biological target: T4, Lig4 fragment (amino acids 660-830) (S. pombe); assay: as above
[4] = biological target: T5, Lig4 fragment (amino acids 741-913) (S. pombe); assay: as above

binding (Lig4-GFP (S. pombe)) | binding [1] | binding [2] | binding [3] | binding [4] | Binder
binds |  |  |  |  | Xrc4-mCherry (protein, UniProt Q92361 1-264) MKFFLSLKDFKGEKFVLRSELDESSAFLCAISPTCRYVLRDEIPWKRLQRNVTSESLTDELIVDLLCGRSESKHTLQLVVLENLCRIYINYVDPFPLRIAWFELEQQALKDHEHFDVLWECSHSIKDLALASMAQQKNELQKLMAYTEQLQEECKSRERKLIMKFADMIKNARNNEDNEDNHHINYEDESDVGTDEQKQQEGVNSSAVSDTDESAVSDEFMQIKEEFPMKALSASPTADASPESAGEDDSHRRSSHESSETVSE
 | binds | binds | no binding | binds | Xrc4 (two-hybrid prey) (protein, UniProt Q92361 1-264) MKFFLSLKDFKGEKFVLRSELDESSAFLCAISPTCRYVLRDEIPWKRLQRNVTSESLTDELIVDLLCGRSESKHTLQLVVLENLCRIYINYVDPFPLRIAWFELEQQALKDHEHFDVLWECSHSIKDLALASMAQQKNELQKLMAYTEQLQEECKSRERKLIMKFADMIKNARNNEDNEDNHHINYEDESDVGTDEQKQQEGVNSSAVSDTDESAVSDEFMQIKEEFPMKALSASPTADASPESAGEDDSHRRSSHESSETVSE
